Results from the supplement of paper PMC10326071.
This is one part of the list. Many values rest on one well or one pass, so single values are uncertain.

Columns and labels:
[1] = system: SARS-CoV-2 nsp3 SARS-unique domain core (SUD-core, nsp3 residues 413-676); assay: dissociation rate constant koff (BLI); higher = faster dissociation; conditions: 100 µM; 25 °C
[2] = system: SARS-CoV-2 nsp3 SARS-unique domain core (SUD-core, nsp3 residues 413-676); assay: apparent dissociation constant Kd (single-concentration BLI fit); higher = weaker binding; conditions: 100 µM; 25 °C

| SMILES | dissociation rate constant koff [1] [s⁻¹] | apparent dissociation constant Kd [2] [µM] |
| --- | --- | --- |
| COc1cc2ncnc(Nc3ccc(O)c(Br)c3)c2cc1OC | 0.172 | 4000 |
| CC(C)NC(=O)C1CCC(n2c(NC(=O)c3ccc(F)cc3)nc3ccc(CN4CCC(C(C)(C)O)CC4)cc32)CC1 (configuration not stated) | 0.0161 | 6.65 |
| COc1ccc(-c2c(-c3ccc(O)cc3O)n[nH]c2C)cc1 | 0.573 | 829 |
| CN(C)C(=O)/C(C#N)=C/c1ccc(-c2nc3cnc4[nH]ccc4c3n2C2CCCCC2)o1 | 0.255 | 3210 |
| Oc1cccc(Nc2ncc(F)c(Nc3cccc(O)c3)n2)c1 | 1.2 | 904 |
| CNC(=O)CN1CCC(Oc2cc3c(Nc4cccc(Cl)c4F)ncnc3cc2OC)CC1 | 1.08 | 978 |
| CNS(=O)(=O)Nc1nccc(Cc2c(C)c3ccc(Oc4ncccn4)cc3oc2=O)c1F | 0.324 | 1960 |
| C=CC(=O)Nc1cccc(-c2cccc3cnc(Nc4ccc(N5CCN(CCO)CC5)c(F)c4F)nc23)c1 | 0.0927 | 6860 |
| NC(=O)c1nc(-c2c(F)cccc2Cl)oc1Nc1ccc(C(=O)N2CCOCC2)cc1 | 0.102 | 9620 |
| Cc1cn([C@H]2C[C@H](F)[C@@H](CO)O2)c(=O)[nH]c1=O | 0.0265 | 103 |
| COc1cccc2cc(-c3nc(C4CCC(C(=O)O)CC4)n4ncnc(N)c34)[nH]c12 (configuration not stated) | 0.236 | 25.8 |
| Cc1cn(C2O[C@@H](CO)[C@H](O)[C@H]2F)c(=O)[nH]c1=O (some centres not stated) | 0.0146 | 105 |
| CCNC(=O)[C@H]1O[C@@H](n2cnc3c(N)ncnc32)[C@H](O)[C@@H]1O | 0.0141 | 40.5 |
| Cc1[nH]nc2ccc(-c3cncc(OC[C@@H](N)Cc4c[nH]c5ccccc45)c3)cc12 | 0.213 | 3270 |
| CN1CCN(Cc2ccc(-c3cn(C4CCC(O)CC4)c4nc(NCCC5CC5)ncc34)cc2)CC1 (configuration not stated) | 0.0601 | 82.6 |
| N#C/C(=C\c1ccc2oc(=O)[nH]c2c1)C(=O)c1ccc(O)c(O)c1 | 0.0133 | 56.5 |
| O=C(O)c1ccccc1Nc1cccc(C(F)(F)F)c1 | 0.828 | 1460 |
| CC(C)c1cc(/C=C(\C#N)C(=O)NCCCc2ccccc2)cc(C(C)C)c1O | 0.0319 | 53.1 |

| SMILES | dissociation rate constant koff [1] [s⁻¹] | apparent dissociation constant Kd [2] [µM] |
| --- | --- | --- |
| [N-]=[N+]=N[C@]1(CO)O[C@@H](n2ccc(=O)[nH]c2=O)[C@@H](O)[C@@H]1O | 0.0373 | 9710 |
| COc1ccc(CCC(=O)c2ccc(O)cc2)c(OC)c1 | 0.378 | 14800 |
| N#Cc1ccc(COC[C@H]2O[C@@H](n3c(NCc4ccc(Cl)c(Cl)c4)nc4c(N)ncnc43)[C@H](O)[C@@H]2O)cc1 | 0.0281 | 47.4 |
| Nc1ncnc2c1ncn2[C@@H]1O[C@H](CO)[C@@H](O)[C@@H]1O | 0.00665 | 45.8 |
| CCOc1cc(N2CCC(O)CC2)ccc1Nc1ncc2c(n1)N(C1CCCC1)CCC(=O)N2C | 0.631 | 1800 |
| Cc1[nH]nc2ccc(-c3cncc(OC[C@@H](N)Cc4ccccc4)c3)cc12 | 0.386 | 617 |
| N#Cc1c(C2CCNCC2)cc(-c2c(O)cccc2OCC2CC2)nc1N | 0.605 | 1810 |
| CNC(=O)c1cc(Oc2ccc3nc(N[C@@H]4CCCC[C@H]4O)sc3c2)ccn1 | 0.175 | 140 |
| C=CC(=O)Nc1cc(Nc2ncc(C(=O)OC(C)C)c(-c3cn(C)c4ccccc34)n2)c(OC)cc1N(C)CCN(C)C | 1.09 | 1690 |
| C[C@H]1O[C@@H](n2cc(F)c(=O)[nH]c2=O)[C@H](O)[C@@H]1O | 0.115 | 27500 |
| NC1CCC(Nc2cc(-c3cccc(NCc4cccc(F)c4)n3)c(Cl)cn2)CC1 (configuration not stated) | 0.356 | 1350 |
| O=C(NC1CCNCC1)c1[nH]ncc1NC(=O)c1c(Cl)cccc1Cl | 0.503 | 214 |
| Cn1cc(-c2cnc3cnn(S(=O)(=O)c4cnc5ccc(-c6cnn(C)c6)cn45)c3c2)cn1 | 0.119 | 43700 |
| COc1cc(-c2cc(-c3ccc(N4CCNCC4)cc3)cnc2C)cc(OC)c1OC | 0.0748 | 64.9 |
| C=CC(=O)Nc1ccc(CN2C(=O)N(c3cc(OC)cc(OC)c3)Cc3cnc(Nc4ccc(N5CCN(C)CC5)cc4)nc32)cc1 | 2.18 | 1660 |
| C[C@@H](c1ccc(-c2ccccc2)c(F)c1)c1cc(/N=C(\N)N2CCOCC2)on1 | 0.00464 | 1.43 |
| O=C(Nc1cccc(C(F)(F)F)c1)c1cccc2cc(Oc3cc(CO)ncn3)ccc12 | 0.0328 | 17400 |
| Cc1ccc(NC(=O)N2CCN(c3nc(N)nc4sc(-c5cccnc5)nc34)CC2)cc1 | 0.0779 | 110 |
